# In the supplement of paper PMC11417369:
# Some of the results follow.
# Test system: PfAP2-HC AP2 domain (GST-tagged)
# Assay: gcPBM binding intensity (ln(normalized median fluorescence intensity)); higher = stronger DNA binding
# In short: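 In this array assay, P. falciparum DNA-binding domains with a GST tag, expressed in E. coli, were applied for 1 h to primer-extended double-stranded 36-bp intergenic genomic probes and negative controls on an Agilent 4 × 180k array. Bound protein was visualised with Alexa488 anti-GST antibody at 488 nm. Binding intensity is the highest Masliner-normalised natural-log median intensity across replicate spots of either probe orientation.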
row,Sequence,gcPBM binding intensity (ln)
1,TTAATATGAAAACTCTGTACCCAACCTTCTTATGGA [XGTACX_site2126],9.7
2,TATATAAATATATAATGTACGTTTTAAAAATAATAT [XGTACX_site3881],9.59
3,ATATAATAAATGTAGGTGCATAAAAATATTTTGTTA [GTGCAC_site9780],9.85
4,TTAACCACTAAAAGTACACACATATATACCTATATA [CACACA_site6026],9.86
5,TTTTAATAATATGGATGTACATAAAAATAAATAAAT [XGTACX_site7937],9.77
6,TACTAAATGATCATATGTACACATGTTTACTTTTTA [XGTACX_site1253],9.81
7,AATATATATATATATATATATATTTCAATATATAAA [XGTACX_negctrl_site187],9.59
8,ATACATATACACATTTGTACATATTCCTTTTTATCG [XGTACX_site1731],9.77
9,TTATTTAAAATGAAAAGTACATATTACTTTCTCACA [XGTACX_site5043],9.47
10,TCTTGTTTTAATTTTTATATTATTATTTAGATATAT [CACACA_negctrl_site921],9.74
11,AAAAAAAAAAAAAGTGCACACTTTTAATATAAATAT [CACACA_site3314],9.68
12,TTTTTATTTTTTAGTAGTACACACTTTTTGAACCTT [XGTACX_site1091],9.74
13,TTTTTTTTTTTCCTTACACACATATTTCATTTTATA [CACACA_site747],9.87
14,TTTTATATATATTATACACACAAGGAAAAAAAAAAA [CACACA_site3677],9.74
15,TATAAAAGGAAACACACACACATATATATATATATA [CACACA_site939],10.5
16,TGGATATATGTAAAAATTGCAAGAAAGATAAAAGGA [CACACA_negctrl_site64],9.77
17,ATTATGATATATATATGTACATATATATAATATAAT [XGTACX_site259],9.67
18,TCTATGAATTAATATGCATGTAACGTATTTATACTT [TGCATGCA_site669],9.63
19,CAAAAAATATATTTTTGTACTTATGTTTTTATTTTG [XGTACX_site5230],9.74
20,TAGTATAATATGAACACACACACACCCACAAAAAAA [CACACA_site2009],10.5
21,TTATAATATAAAAAATGTACATTAAAAAAAAAGATT [XGTACX_site8950],9.74
22,AAGTATCAAAAATAAAGTACATATTTTGTAGGCAGG [XGTACX_site1463],9.8

row,Sequence,gcPBM binding intensity (ln)
1,AAAAGATAAAATTATGCACACATACGAATAATTTTA [CACACA_site8497],9.87
2,TATTTCACACAGTATATATATATATATATATATATA [TGCATGCA_negctrl_site118],9.81
3,AAGGGAAAAAAAAAAGCACACATACGTAAATATATA [CACACA_site7960],9.74
4,GTTAATTTTTGTATAGTGCAAAAATATAATAGTATG,9.63
5,TGTTGGTATGTGAATGCATGCATATAAGTCTATCTG [TGCATGCA_site780],9.64
6,TTGAAGTATAATAAAGTGCAAAATTATAATGATCTT [GTGCAC_site9639],9.78
7,ATCTGACAAAAGTGTACACATATATATATATATATA [CACACA_site4814],9.72
8,AAATGGGAAATTTCATGTACTCATTTACCCTTATTA [XGTACX_site4740],9.52
9,CACATAATGAAAAATACACACATGTATATTTATAAA [CACACA_site2736],9.79
10,CTTTCATATGTTTTAACACACACGCATATATTATAG [CACACA_site7033],10
11,ATATAAGTTATTTTATACAAAAAAAAAAAAAAAAAT [CACACA_negctrl_site1190],9.68
12,AAGAATGTTAACGTTGCACACAAAAAAAAAGTATAC [CACACA_site8763],9.93
13,AAAAAAAAAAAAAATACACACACATATATATATATA [CACACA_site8698],9.93
14,TATTTATGCACGCGTGCACACACATATGAAAAAAGG [CACACA_site9090],9.87
15,AATTGCTAATGGTACGAACACACATATAAAGATGCA [CACACA_site8634],9.77
16,AGTATACACAGACACACACACACATATATATATATA [CACACA_site8510],10.9
17,TTTTTATGGACTATGGTGCATTATATATAAATGAAA [GTGCAC_site9557],9.3
18,TAATATTATATAAATTGTACTATTTTTTCCTTATTC [XGTACX_site5314],9.55
19,GTAAACAATTATGAACGTACATAAAATAAATGAACA [XGTACX_site7159],9.87
20,TGTCTTTTTAAGTTTTGTACATAAATATATTTCAAA [XGTACX_site427],9.6
21,TTTTCATTTTTCTTTACACACATATATATATATATA [CACACA_site2236],10
22,TATATATATATTTTTTGTACATATTATATAATATAC [XGTACX_site5187],9.64

row,Sequence,gcPBM binding intensity (ln)
1,GAAAGACAAATTGTGACACACACAAAAAAAAAAAAA [CACACA_site9241],10.2
2,AAAAAAAAAAAAAAAAAAAAACACCCAAAAAAATAT [XGTACX_negctrl_site210],10.1
3,ATATCAAATTCTGAAACACACAAAATTACACCTCTA [CACACA_site169],9.88
4,TTTTCGATATGCTTTTTTTTTCTACTGTCTTTTTAA [TGCATGCA_negctrl_site54],9.61
5,CAAAAATATTATTATAGTACATAAATAATATATTTT [XGTACX_site6902],9.52
6,TAAAAATAGGAGTGTGTGCACATAAATTATATACTA [GTGCAC_site9405],10.2
7,TTACTTAATAGACACACACACAAAAAAAAAAAAAAA [CACACA_site6572],10.1
8,CACATACATAAATACACACACAAAATAATAAAATAA [CACACA_site5304],10.2
9,AAACAATAAAAGATTACACACATATATAGCATATAT [CACACA_site1698],10.1
10,TATACATAATATATATGTACATATATTCTTTATTTT [XGTACX_site4565],9.77
11,TCAAATAATTTGTTGACACACACACCCACATACATA [CACACA_site8717],10.6
12,ATATTTTTTACTATTACACACAAGGGATTATTATTT [CACACA_site3915],9.93
13,ACCTTATAAAAAAAAAGTACATATATAAATAATAAA [XGTACX_site4338],9.58
14,ATAATATATTTATGTTGTACAAGGAAAATTTTGAAA [XGTACX_site3472],9.63
15,GAAATGGAAAAATATACATGCGCATATAAATTAATA [TGCATGCA_site834],9.78
16,TGGAGGATAGTTCACAGTACCCAGAAACTCTACGGA [XGTACX_site2560],9.38
17,AACCATAAATAATTATGTACTAAAAAAAATATATAT [XGTACX_site3415],9.64
18,TTATTTATGATATATACACACTAACATTATTTATCC [CACACA_site6720],9.92
19,TCTTATATATGCTTAAATATATTATATTTATTTGAA [CACACA_negctrl_site1757],9.55
20,ATCATATGTATGCATACACACAAAAAATTATATATA [CACACA_site398],9.82
21,TATAATGATATAACAACACACATGTATGTATTATTA [CACACA_site230],9.98
22,TTTTTAATATATAAAGATAATAATAAATAAAATTCA [CACACA_negctrl_site657],9.39

row,Sequence,gcPBM binding intensity (ln)
1,TATAGATACCTATACACACACACACGGACATATATA [CACACA_site7585],10.8
2,ATATAAAACAACGGGTGTACAAAAAAATAAATAATA [XGTACX_site4094],9.86
3,AAAGAAATGAAATATACACACATACCTATATACATA [CACACA_site7817],10.2
4,TTTTTCTTCTGCATTATGCACACTATAATTCGTTAA [CACACA_site2837],9.87
5,CTGAATGTATATATTTGTACATATATATATATATAT [XGTACX_site5557],9.73
6,GGGTATAATAAAAGCACACACAAAGATATAAATATA [CACACA_site3308],10.6
7,AAAAAAAAAAAACACGCATGTACATAAAAATAATCA [TGCATGCA_site142],9.92
8,TTTTTTTTTTTTAATTAACACACATAAATATATATA [CACACA_site9077],9.47
9,TTAAAATCTTGAAAAGTGCATTATCATTTTGTAACG [GTGCAC_site9447],9.44
10,TATAATGATGATGATAGTACGTATGAGTTCAAAAAA [XGTACX_site3656],9.72
11,TATATATTTATATATGCATGTACATTTTTATTTATT [TGCATGCA_site1048],9.86
12,TAAATCTATATCATCACACACACATACATAAATATA [CACACA_site6228],10.2
13,TAGTATTGTAAAAAAAAAAAAGAAAAAAAAAAAAAA [CACACA_negctrl_site977],9.07
14,AATATATGGTTCCTTGATATTAAATTCAATTTAATG [CACACA_negctrl_site71],9.55
15,TGTGTATATGTGCAAAGTACAAAAAAGAAATTATTT [XGTACX_site7569],9.83
16,GAAAAAAAATCCAAGATGCACTATTATTACAAAAAT [GTGCAC_site9516],9.67
17,GTCAAAAGTTTTTAAGGTACACTTATTTTATTATAA [XGTACX_site7004],9.66
18,ATGTAATATATGCGGAAATATATTCACAAGACGTCA [CACACA_negctrl_site373],9.69
19,CACTAAACATATACACGTACATGCAACGGATTTTTT [XGTACX_site461],9.67
20,ACCTTTATTGTATGAACACACATAAGCTGATACATC [CACACA_site4028],9.81
21,TGGATGTTAATATAGTGTACATTTATAAGTCAGTAT [XGTACX_site2949],9.72
22,GTGGAAAAAAATAATTGTACACAATAATAAATATAT [XGTACX_site2414],9.83
